Structures are written as SMILES.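 Interpolation was linear, between the two tested concentrations surrounding the appropriate level; five concentrations were tested over 48 hours in 96-well plates. The concentration for 50% growth inhibition is given as GI50. The concentration for full growth arrest is given as TGI.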 Bounds are passed on as bounds.

The subject of the assay is NCI-H322M lung. The experiment in a line: NCI anticancer screen, dose series, 48 h.
For `CCOC(=O)/C=C\[C@H]1OC(C)(C)O[C@H]1[C@H](O)[C@H]1COC(C)(C)O1`, the TGI was over 100 µM. Same read-out and setting: the figure for `CCOC(=O)C(NC(=O)CC)(C(F)(F)F)P(=O)(OCC)OCC` (centres undefined) is over 100 µM. Consider `Cn1ccnc1C(=O)/C=C/c1ccc(C(=O)Nc2ccccc2F)cc1`, for which the GI50 was 1.81 µM and the TGI worked out at 3.97 µM. In the case of `COc1ccc2oc(=O)cc(C3c4ccc([nH]4)C(c4cc(=O)oc5ccc(OC)cc45)c4ccc([nH]4)C(c4cc(=O)oc5ccc(OC)cc45)c4ccc([nH]4)C(c4cc(=O)oc5ccc(OC)cc45)c4ccc3[nH]4)c2c1` (centres undefined), the GI50 is 3.73 µM and the TGI was found to be 14.8 µM. In turn, `Cc1c(CN)c(C)c(CN)c(C)c1CN` yielded a TGI of over 100 µM. As to `c1cc2ccc3cc2cc1CNCCN1CCNCc2ccc4ccc(cc4c2)CNCCN(CCNC3)CCNCc2ccc3ccc(cc3c2)CNCC1`, the GI50 is 2.35 µM and the TGI was found to be 7.84 µM. Turning to `N#C/C(=C\c1ccc(Cl)cc1)c1nc(-c2cc3ccccc3oc2=O)cs1`, the TGI was over 100 µM. Regarding `O=C(Nc1ccc(-n2ccc3c(NC(=O)c4ccccc4)nccc32)cc1)c1cccc(C(F)(F)F)c1`, the GI50 is 3.87 µM and the TGI is over 34.1 µM. `COc1ccc(/C=C/C(=O)Oc2ccc(/C=C3\CCCCC3=O)cc2)cc1`: the TGI was over 100 µM. The same measure, in the same setting: with `C[N+](C)(C)CC1CCc2ccccc2C1=O` (centres undefined) the figure was 33.4 µM.

As for `COC1OC(C)C(OC(=O)C(C)(C)C)C(OS(=O)(=O)c2ccc(C)cc2)C1OS(=O)(=O)c1ccc(C)cc1` (centres undefined), the TGI is over 100 µM. On the same count and under the same terms, with `CCOC(=O)[C@@]12C(C)=CC(=O)O[C@]1(C)C[C@H]2C#N` the figure was over 100 µM.

`COc1cc2c(c(OC)c1)C(C)=NC(C)C2` (centres undefined): the TGI is over 100 µM. Consider `Cc1ccnc2[nH]c(-c3cccc4ccccc34)cc(=O)c12`, for which the GI50 was 0.0161 µM and the TGI was over 100 µM. As to `COc1ccc(C(=O)/C=C/c2ccc(OCc3ccc(Cl)cc3)cc2)cc1OC`, the GI50 is 196 µM and the TGI was over 1000 µM. In turn, `C=C[C@@]1(C)CC2(C=C(CO)C(O)O2)Oc2c1c(=O)oc1cccc(C)c21` (some centres undefined) registered a TGI of 52.6 µM. In the case of `COc1cc2c3c(n(CCCNCCCNCCCn4c5c(c6cc(OC)c(OC)cc6c4=O)C(=O)c4ccccc4-5)c(=O)c2cc1OC)-c1ccccc1C3=O`, the GI50 was 6 µM and the TGI is over 100 µM. For `CCCCCC/C=C\CCCCCCCCCc1cc(O)cc(OC)c1O` the same measures were 0.397 µM and 4.86 µM. The molecule `CN1CCN(Cn2nc(COc3ccc(Cl)cc3)n(/N=C/c3ccc(-c4ccc(Cl)cc4Cl)o3)c2=S)CC1` yielded a TGI of 22 µM. Still for that read-out and setting: the figure for `COc1cccc(-c2cc(=O)c3cc(NC(C)=O)ccc3[nH]2)c1` is over 100 µM; for `COc1cccc(C2SCC(=O)N2c2ccc(-c3ccc(-n4c(-c5ccccc5)nc5ccccc5c4=O)cc3)cc2)c1OC` (centres undefined) it is over 100 µM. The same measure, in the same setting: with `O=C(/C=C/c1ccc(OCc2ccccc2)c(OCc2ccccc2)c1)OCc1ccccc1` the figure was over 100 µM. Same read-out and setting: with `CN(C)CCCNC(=S)S` the figure was over 100 µM; with `CCN1C(Cl)=NS(=O)(=O)c2ccccc21`, over 100 µM. For `C=CCCCC(=O)CCC(=O)OCC1O[C@@H](O[C@@H]2C(O)[C@@H](OC(C)=O)C(C)O[C@H]2O[C@H](CC=C)CCCCC)C(O)[C@@H](OC(=O)/C(C)=C/C)[C@@H]1OC(=O)/C=C/c1ccccc1` (some centres undefined), the GI50 is 1.51 µM and the TGI was over 50 µM. Regarding `CCCCCCCCCCCCCCNc1nc(C(=O)OCC)ncc1-c1ccc(C(F)(F)F)cc1`, the GI50 was over 100 µM and the TGI was over 100 µM. As to `O=C(O)[C@@H]1CCCN1Cc1cc2cc3c(cc2c2cc(OCc4ccccc4)ccc12)OCO3`, the GI50 is 27 µM and the TGI was found to be 85.3 µM. `Clc1ccc(C2c3ccccc3-c3nc4ccccc4n32)cc1` (centres undefined) had a TGI of over 69.7 µM. On the same count and under the same terms, with `NCc1ccc(O)c(O)c1` the figure was over 100 µM. On the same count and under the same terms, with `Cc1cc2c(C(C)C)c(O)c(O)c(C=NCC3CCCN4CCCCC34)c2cc1-c1cc2c(C=NCC3CCCN4CCCCC34)c(O)c(O)c(C(C)C)c2cc1C` (centres undefined) the figure was 32.4 µM; with `COc1c(-c2ccccc2)oc2c(CP(=O)(OC)OC)cccc2c1=O`, over 100 µM; with `CCCOc1cc2c(cc1O)CC[C@@H]1[C@@H]2CC[C@]2(C)[C@@H](O)CC[C@@H]12`, over 57.5 µM. In the case of `CC(=O)CC1(O)C(=O)c2c(Br)sc(Br)c2C1=O`, the TGI is over 100 µM. Still for that read-out and setting: the figure for `CCOC(=O)C(C(N)=O)c1nc2cc([N+](=O)[O-])ccc2nc1/C=C(\O)c1ccccc1` (centres undefined) is 71.1 µM; for `COC(=O)c1ccccc1C1CN=NC12Cc1c(C)cccc1C2=O` (centres undefined) it is over 100 µM; for `C[Si](C)(C)CC(N)=O` it is over 100 µM. The same measure, in the same setting: with `CC1(C)CC2(S(=O)(=O)c3ccccc3)ON1CC2S(=O)(=O)c1ccccc1` (centres undefined) the figure was over 100 µM; with `C[C@]12CC[C@H](O)C[C@@H]1CC[C@@H]1[C@@H]2CC[C@]2(C)[C@@H](c3cc(C(F)(F)F)n[nH]3)CC[C@@H]12`, 22.5 µM.

Values taken from PubChem BioAssay (NCI).
